Assay results from the antibiotic and cytotoxicity screens of Wong et al. (2023).
This is one part of the list.

tested on: HepG2; test: cytotoxicity call (relative viability < 0.9); conditions: 10 µM

Row | SMILES | cytotoxicity call
1 | C=CC[C@H](CC(=O)N[C@@H](CO)Cc1ccccc1)C(=O)N[C@@H](COC(=O)[C@@H](CC=C)Cc1ccc(F)cc1)Cc1c[nH]c2ccccc12 | inactive
2 | C[C@@H]1CN([C@H](C)CO)C(=O)c2cccc(NC(=O)c3cnccn3)c2O[C@@H]1CN(C)C(=O)Nc1ccc(F)cc1 | inactive
3 | CO[C@@H]1[C@H](N(C)C(=O)c2ccccc2)C[C@H]2O[C@]1(C)n1c3ccccc3c3c4c(c5c6ccccc6n2c5c31)C(=O)NC4 | active
4 | O=C(C[C@@H]1C[C@@H]2c3cc(NC(=O)C4CCOCC4)ccc3O[C@@H]2[C@H](CO)O1)NCCN1CCCCC1 | inactive
5 | C[C@H]1CN([C@@H](C)CO)S(=O)(=O)c2ccc(C#CC(C)(C)O)cc2O[C@H]1CN(C)Cc1ccccc1 | inactive
6 | C[C@H]1CCCCO[C@@H](CN(C)Cc2ccc(C(=O)O)cc2)[C@@H](C)CN([C@@H](C)CO)C(=O)c2cc(NC(=O)Nc3cccc4ccccc34)ccc2O1 | inactive
7 | C[C@H]1CN([C@@H](C)CO)S(=O)(=O)c2ccc(-c3ccc(F)cc3)cc2O[C@H]1CN(C)C(=O)C1CCOCC1 | inactive
8 | COc1ccc(CN(C)C[C@H]2OCCCC[C@H](C)Oc3ccc(NC(=O)c4ccccc4)cc3C(=O)N([C@@H](C)CO)C[C@H]2C)cc1 | inactive
9 | C[C@@H]1CN([C@@H](C)CO)C(=O)Cc2cc(NC(=O)Cc3ccccc3)ccc2O[C@H]1CN(C)Cc1ccc(Cl)c(Cl)c1 | inactive
10 | COc1ccc2c3c(n(c2c1)C)[C@@H](CO)N(C[C@]13CCN(CC1)C(=O)Nc1cccc(c1)F)S(=O)(=O)C | inactive

tested on: S. aureus RN4220; test: growth inhibition call (relative growth <= 0.2); conditions: 50 µM

Row | SMILES | growth inhibition call
11 | C[C@@H]1CN([C@@H](C)CO)C(=O)Cc2cc(N(C)C)ccc2O[C@@H]1CN(C)S(=O)(=O)c1ccc(F)cc1 | inactive
12 | CC(C)NC(=O)N(C)C[C@@H]1Oc2cc(C#Cc3cccc(F)c3)ccc2S(=O)(=O)N([C@@H](C)CO)C[C@H]1C | inactive
13 | CCOC(=O)Cc1nnc(CC(=O)OCC)[nH]1 | inactive
14 | C[C@@H]1CCCCO[C@H](CN(C)CC2CCCCC2)[C@@H](C)CN([C@H](C)CO)C(=O)c2cc(NS(=O)(=O)c3cccs3)ccc2O1 | inactive
15 | Cc1ccc(S(=O)(=O)Nc2ccc3c(c2)C(=O)N([C@H](C)CO)C[C@H](C)[C@@H](CN(C)Cc2ccccc2)OCCCC[C@@H](C)O3)cc1 | inactive
16 | C[C@@H]1CN([C@@H](C)CO)C(=O)Cc2cc(NS(=O)(=O)c3ccc(F)cc3)ccc2O[C@H]1CN(C)Cc1ccc(Cl)c(Cl)c1 | inactive
17 | COc1ccc2c3c([nH]c2c1)[C@H](CO)N(C[C@]13CN(CCc2ccccc2)C1)C(=O)CN1CCOCC1 | inactive
18 | C[C@@H]1CCCCO[C@@H](CN(C)Cc2ccccc2)[C@@H](C)CN([C@H](C)CO)C(=O)c2cc(NC(=O)C3CCCCC3)ccc2O1 | inactive
19 | C[C@@H]1CN([C@@H](C)CO)C(=O)c2cc(NC(=O)Cc3cn(C)c4ccccc34)ccc2O[C@H]1CN(C)C(=O)Nc1ccc(C(F)(F)F)cc1 | inactive
20 | C[C@@H]1CCCCO[C@H](CN(C)Cc2ccccc2)[C@H](C)CN([C@@H](C)CO)C(=O)c2cc(NC(=O)C3CCCCC3)ccc2O1 | inactive
21 | C[C@@H]1CCCCO[C@@H](CN(C)S(=O)(=O)c2cccs2)[C@@H](C)CN([C@H](C)CO)C(=O)c2cc(NC(=O)C3CCCCC3)ccc2O1 | inactive
22 | Nc1nc(=O)c2nc(C(=O)O)cnc2[nH]1 | inactive
23 | CN(C)CCCNC(=O)C[C@@H]1C=C[C@H](NC(=O)Cc2cccnc2)[C@@H](CO)O1 | inactive
24 | C[C@H]1CCCCO[C@H](CN(C)C(=O)Nc2ccc(F)cc2)[C@@H](C)CN([C@@H](C)CO)C(=O)c2cc(NC(=O)NC3CCCCC3)ccc2O1 | inactive
25 | C[C@@H]1CN([C@@H](C)CO)C(=O)c2cccc(NC(=O)C3CCCCC3)c2O[C@@H]1CN(C)Cc1ccc(C(F)(F)F)cc1 | inactive
26 | CNC[C@H]1OCCCC[C@@H](C)Oc2ccc(NC(=O)Nc3ccc(C(F)(F)F)cc3)cc2C(=O)N([C@@H](C)CO)C[C@H]1C | inactive
27 | COc1cccc(S(=O)(=O)N(C)C[C@@H]2Oc3ncc(-c4cccc(F)c4)cc3C(=O)N([C@H](C)CO)C[C@@H]2C)c1 | inactive
28 | COc1ccc(NC(=O)Nc2ccc3c(c2)C(=O)N([C@H](C)CO)C[C@@H](C)[C@@H](CN(C)C(=O)NC(C)C)OCCCC[C@H](C)O3)cc1 | inactive
29 | CC1(C(=O)O)CCC2(C)CCC3(C)C(=CC(=O)C4C5(C)CCC(O)C(C)(C)C5CCC43C)C2C1 (stereo not given) | inactive
30 | C[C@H]1CCCCO[C@H](CN(C)C(=O)NC2CCCCC2)[C@@H](C)CN([C@@H](C)CO)C(=O)c2cc(NC(=O)Nc3ccccc3)ccc2O1 | inactive

Row | SMILES | growth inhibition call
31 | C[C@H]1CN([C@@H](C)CO)C(=O)Cc2cc(NS(=O)(=O)c3ccccc3)ccc2O[C@H]1CN(C)Cc1ccncc1 | inactive
32 | COc1cc2nc(N3CCN(C(=O)C4CCCO4)CC3)nc(N)c2cc1OC.Cl (stereo not given) | inactive
33 | CC(C)NC(=O)Nc1ccc2c(c1)C(=O)N([C@@H](C)CO)C[C@H](C)[C@@H](CN(C)C(=O)Nc1ccccc1)OCCCC[C@H](C)O2 | inactive
34 | Cc1noc(C)c1S(=O)(=O)N(C)C[C@H]1OCCCC[C@@H](C)Oc2ccc(NC(=O)Nc3ccc(C(F)(F)F)cc3)cc2C(=O)N([C@@H](C)CO)C[C@@H]1C | inactive
35 | CC(=O)N1C(=O)N(C(C)=O)[C@@H](O)[C@H]1O | inactive
36 | C[C@H](CO)N1C[C@H](C)[C@@H](CN(C)Cc2ccc(-c3ccccc3)cc2)Oc2ccc(NC(=O)NC3CCCCC3)cc2C1=O | inactive
37 | CC(C)NC(=O)N(C)C[C@H]1OCCCC[C@H](C)Oc2ccc(NC(=O)C3CCCCC3)cc2C(=O)N([C@H](C)CO)C[C@@H]1C | inactive
38 | C[C@H](CO)N1C[C@H](C)[C@H](CN(C)C(=O)CN(C)C)Oc2cc(C#Cc3cccnc3)ccc2S1(=O)=O | inactive
39 | CN(C)CCCNC(=O)C[C@@H]1C=C[C@@H](NC(=O)Cc2cccnc2)[C@@H](CO)O1 | inactive
40 | CO[C@@H](CN(C)C(=O)c1ccccc1F)[C@H](C)CN([C@@H](C)CO)S(=O)(=O)c1ccc(Cl)cc1 | inactive
41 | C=CC[C@H](CC(=O)N[C@@H](CO)Cc1ccccc1)C(=O)N[C@@H](COC(=O)[C@@H](CC=C)Cc1ccc(F)cc1)Cc1c[nH]c2ccccc12 | inactive
42 | C[C@@H]1CN([C@H](C)CO)C(=O)c2cccc(NC(=O)c3cnccn3)c2O[C@@H]1CN(C)C(=O)Nc1ccc(F)cc1 | inactive
43 | CO[C@@H]1[C@H](N(C)C(=O)c2ccccc2)C[C@H]2O[C@]1(C)n1c3ccccc3c3c4c(c5c6ccccc6n2c5c31)C(=O)NC4 | inactive
44 | O=C(C[C@@H]1C[C@@H]2c3cc(NC(=O)C4CCOCC4)ccc3O[C@@H]2[C@H](CO)O1)NCCN1CCCCC1 | inactive
45 | C[C@H]1CN([C@@H](C)CO)S(=O)(=O)c2ccc(C#CC(C)(C)O)cc2O[C@H]1CN(C)Cc1ccccc1 | inactive
46 | C[C@H]1CCCCO[C@@H](CN(C)Cc2ccc(C(=O)O)cc2)[C@@H](C)CN([C@@H](C)CO)C(=O)c2cc(NC(=O)Nc3cccc4ccccc34)ccc2O1 | inactive
47 | C[C@H]1CN([C@@H](C)CO)S(=O)(=O)c2ccc(-c3ccc(F)cc3)cc2O[C@H]1CN(C)C(=O)C1CCOCC1 | inactive
48 | COc1ccc(CN(C)C[C@H]2OCCCC[C@H](C)Oc3ccc(NC(=O)c4ccccc4)cc3C(=O)N([C@@H](C)CO)C[C@H]2C)cc1 | inactive
49 | C[C@@H]1CN([C@@H](C)CO)C(=O)Cc2cc(NC(=O)Cc3ccccc3)ccc2O[C@H]1CN(C)Cc1ccc(Cl)c(Cl)c1 | inactive
50 | COc1ccc2c3c(n(c2c1)C)[C@@H](CO)N(C[C@]13CCN(CC1)C(=O)Nc1cccc(c1)F)S(=O)(=O)C | inactive
